The structures appear in SMILES notation. Values joined by “and” are separate entries in the source; they are usually repeats but may differ in a detail not shown here. Identical values can stand only once.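 Cells were grown in 96-well plates and exposed to each compound for 48 hours at five concentrations; endpoints were interpolated linearly between bracketing concentrations, or set to the highest concentration if not reached. Abbreviation: GI50, concentration required for 50% inhibition of growth. TGI marks complete inhibition of growth.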 Some results are limits rather than exact numbers.

For the test, the system named is NCI-H322M lung. The test can be described thus: inhibition of tumour cell growth, NCI panel, 48 h.
With `COc1cc2c3c(n(CCCNC(=O)OCC4c5ccccc5-c5ccccc54)c(=O)c2cc1OC)-c1cc2c(cc1C3=O)OCO2`, the GI50 is 62.2 µM and the TGI was over 100 µM.

Turning to `CC(=O)c1c(O)ccc2c(C)c(C(=O)O)oc12`, the GI50 is over 100 µM and the TGI is over 100 µM.

`C=C(CN(C)C)C(=O)c1cc(C)ccc1C` displayed a TGI of 43.6 µM.

Take `c1ccc(/N=N\Nc2ccc(-c3nc4ccccc4o3)cc2)nc1`: the TGI is over 100 µM.

`O=C(N/N=C/C=C/c1ccc([N+](=O)[O-])o1)c1ccc(Br)s1`: the TGI was over 100 µM.

In the case of `NC1=NN(c2ccccc2)C2(c3ccncc3C(=O)O)C1C(N)=NN2c1ccccc1` (configuration not stated), the TGI is over 100 µM.

`Nc1nc(Cl)c(N=Nc2ccc(Cl)cc2)c(NCC2(CO)CC(OCc3ccccc3)C2)n1` (configuration not stated): the GI50 is 30.3 µM and > 100 µM and 21.2 µM; the TGI was > 100 µM and 63.2 µM.

In the case of `Cn1c(=O)c2[nH]c(C3CC(=O)CC(c4nc5c([nH]4)c(=O)n(C)c(=O)n5C)N3)nc2n(C)c1=O` (configuration not stated), the TGI is over 100 µM.

`Cc1cc(NS(=O)(=O)c2ccc(NC(=O)c3cccc4cc5ccccc5nc34)cc2)no1` returned a TGI of 58.2 µM.

The molecule `O=C1Cc2ccccc2N1c1c(Cl)cccc1Cl` returned a TGI of over 100 µM.

Consider `COc1ccc(CC2NCCc3cc(OC)c(OC)cc32)cc1` (configuration not stated), for which the TGI is over 100 µM.

In turn, `CCN(CC)CCC(=O)N1CCc2c([nH]c3ccccc23)C1c1cccnc1` (configuration not stated) yielded a TGI of over 100 µM.

On to `O=C(N/N=c1/ccoc2cccnc12)N1CCN(c2ncccn2)CC1`, for which the GI50 is 0.273 µM and the TGI was 10.9 µM.

As for `O=c1[nH]cc(N(CCCl)CCCl)c(=O)[nH]1`, the TGI stood at 333 µM.

With `O=c1oc2cc(O)ccc2cc1-c1nc2ccccc2s1`, the TGI was 74.5 µM.

Molecule `NC(N)=NS(=O)(=O)c1ccc(Nc2c3ccccc3nc3c(C(=O)NC(CO)(CO)CO)cccc23)cc1` had a TGI of 75.1 µM.

Consider `COc1ccc(Cn2cnc3cc(C(=O)Nc4cccc5ccccc45)ccc32)c(OC)c1`, for which the GI50 is 0.141 µM and the TGI was over 100 µM.

On to `Cn1ccnc1C(=O)/C=C/c1ccc(C(=O)Nc2ccccc2O)cc1`, for which the GI50 is 2.32 µM and the TGI was determined as 8.43 µM.

The molecule `CCOC(=O)N[C@H]1CCc2cc(O)c(OC)c(OC)c2-c2ccc(SC)c(=O)cc21` registered a TGI of over 16.4 µM.

The molecule `COc1ccccc1-c1nc2ccccc2c(=O)[nH]1` yielded a TGI of over 100 µM.

In the case of `O=C(Nc1cccnc1)c1cccc([N+](=O)[O-])c1`, the GI50 is over 100 µM and the TGI is over 100 µM.

The molecule `c1ccc2c(c1)CCN1CCc3c([nH]c4ccccc34)C21` (configuration not stated) gave a TGI of over 100 µM.

Molecule `COCOCc1cc(OCc2ccccc2)c(OC)cc1Br` returned a TGI of over 100 µM.

Take `CC(=O)O[C@H]1[C@@H](OC2CCCC2(c2ccccc2)c2ccccc2)O[N+]([O-])=C[C@@]12COCc1cc3c(cc12)OCO3` (some centres not stated): the TGI was 34.7 µM.

As to `Cc1ccc(/C=C/C(=O)c2ccc(N)cc2)c(C)c1`, the GI50 is 16.2 µM and the TGI came to 33 µM.

`CC(C)=CC(O)C/C(C)=C/CC/C(C)=C/CCC1(C)C(CCCO)/C(=C(/C)C=O)CCC1(C)O` (configuration not stated) had a TGI of over 100 µM.

The molecule `NC(CCCCN=Cc1nc(-c2ccccc2)oc1O)C(=O)O` (configuration not stated) registered a TGI of over 100 µM.

`COP(=O)(OC)C(O)/C=C(\Cl)c1ccc(Cl)cc1` (configuration not stated) displayed a TGI of over 100 µM.

For `CC(C)(C)c1cn2cccc(C(=O)N3CCN(CC(=O)Nc4ccc(Cl)cc4C(=O)c4ccccc4Cl)CC3)c2n1`, the GI50 is 22.5 µM and the TGI was found to be 83.9 µM.

On to `COc1cc(C(=O)N2CCN(c3ccccc3OC)CC2)c(N)cc1OCc1ccccc1`, for which the GI50 was 31.7 µM and the TGI is over 100 µM.

The molecule `O=C(Nc1ccc([N+](=O)[O-])cc1C(=O)O)c1ccc([N+](=O)[O-])cc1` showed a TGI of over 100 µM.

Take `O=C1NC(N/N=C/c2ccccc2)=N/C1=C\c1cccs1`: the TGI turned out to be 51.3 µM.

In turn, `COc1ccc(N2CCN(Cc3c(C(C)=O)[n+](=O)c4ccccc4n3[O-])CC2)cc1` returned a TGI of over 100 µM.

For `c1cc2cc(c1)CN1CCNCCN(CCNCC1)Cc1cccc(c1)CN1CCNCCN(CCNCC1)C2`, the TGI is over 100 µM.

Molecule `CC(=O)[O-].[Ni].c1ccc(/C(=N\Nc2ccccn2)c2ccccn2)cc1` displayed a TGI of 29.7 µM.

Turning to `C/C1=C\CC[C@@]2(C)O[C@@H]2C[C@@H]2[C@H](C/C(C)=C/CC1)OC(=O)C21CCN=N1` (some centres not stated), the GI50 is over 100 µM and the TGI is over 100 µM.

For `C[N+](C)(C)Cc1c(CC#N)[nH]c2ccccc12`, the TGI is over 100 µM.

Molecule `CCCC(=O)/C=C/S/C=C/C(=O)CCC` gave a TGI of 38.8 µM.

The molecule `CCN(CC)CCNc1ccc2ncn3c4c(OC)cccc4c(=O)c1c23` displayed a TGI of 20.2 µM.

As to `O=C1Nc2ccccc2/C1=C/c1cn(C(=O)c2c(Cl)cccc2Cl)c2ccccc12`, the GI50 was 2.91 µM and the TGI worked out at 17.8 µM.

As to `CCOCC(=O)N[C@H]1CCc2cc(OC(=O)COCC)c(OC)c(OC)c2-c2ccc(SC)c(=O)cc21`, the GI50 is 0.0464 µM and the TGI was over 100 µM.

Take `CCCCCCCCCCCCCCCCOC(=O)c1c(C)[nH]c(/C=C2\N=C(c3ccc[nH]3)C=C2OC)c1C`: the GI50 is 5.86 µM and the TGI amounted to 54.8 µM.

`COc1ccc2c(c1)C(=O)/C(=C/c1ccc([N+](=O)[O-])s1)O2`: the GI50 was 2.53 µM and the TGI is over 25 µM.

`Cn1c(=O)c2c(ncn2CCSS(=O)(=O)O)n(C)c1=O` gave a TGI of over 100 µM.

In the case of `CC(=O)NC(CCCCNC(=O)OC(C)(C)C)C(=O)O` (configuration not stated), the TGI was over 100 µM.

On to `COc1ccc(Cn2cc3c(c2-c2ccc(O)cc2)CCc2cnoc2-3)cc1`, for which the GI50 is 0.498 µM and the TGI stood at 19.9 µM.

`C#C[C@@]1(O)CCCC2=CC(=O)C[C@]21C` had a TGI of over 100 µM.

In turn, `CN(C)CC(C)(C)C(/C=C/c1ccccc1)=N\Nc1ccccc1` had a TGI of over 100 µM.

`Cc1ccc(NC(=O)COC(=O)c2cccc3c(=O)c4ccccc4[nH]c23)cc1` returned a TGI of over 100 µM.

Take `O=C1c2cccc3cccc(c23)C(=O)N1CCCCN1CCN(CCCCOc2ccc(-c3nc4ccc(N5CCOCC5)cc4[nH]3)cc2)CC1`: the GI50 is over 100 µM and the TGI is over 100 µM.

With `Cc1cc(N(CCC#N)CCC#N)ccc1/C(N=Nc1ccccc1)=N\NC(=O)c1ccccc1`, the TGI is over 100 µM.

Consider `COc1cc(-c2c3c([nH]c(=O)c2C#N)-c2cc([N+](=O)[O-])ccc2CCC3)cc(OC)c1OC`, for which the TGI was over 100 µM.

`c1nc(SSc2ncnc3nc[nH]c23)c2[nH]cnc2n1` displayed a TGI of over 31.5 µM.

In turn, `Cc1ccc(S(=O)(=O)N/N=C/c2oc(-c3ccccc3Cl)c(-c3ccccc3Cl)c2[N+](=O)[O-])cc1` returned a TGI of over 100 µM.

For the molecule `Cc1nc2c(n1CCC(C)C)C(=O)c1ccccc1C2=O`, the TGI is over 100 µM.

The molecule `CC(=O)Nc1ccc(S(=O)(=O)[N-]C2C(=O)c3ccccc3C(=O)C2[n+]2ccccc2)cc1` (configuration not stated) showed a TGI of over 100 µM.

In turn, `Cc1ccc(NC(=O)C(=O)C2NC(=S)NC2=O)c([N+](=O)[O-])c1` (configuration not stated) returned a TGI of over 100 µM.

With `COC(=O)c1cc(-c2ccc(-c3ccc(O)cc3)cc2)cc(-c2ccc(-c3ccc(O)cc3)cc2)c1`, the TGI was 25.7 µM.

`COCC(=O)OC1CCn2c1nc1c2C(=O)C(C)=C(NC(C)=O)C1=N` (configuration not stated) displayed a TGI of 29.3 µM.

`BrCCC[P+](c1ccccc1)(c1ccccc1)c1ccccc1` displayed a TGI of over 100 µM.

On to `C=C(C)[C@@H]1CC[C@]2(C(=O)O)CC[C@]3(C)[C@H](CC[C@@H]4[C@@]5(C)C[C@@H](CC#Cc6ccc(Br)cc6)C(=O)C(C)(C)[C@@H]5CC[C@]43C)[C@@H]12`, for which the GI50 was 15.5 µM and the TGI was over 100 µM.

For the molecule `CC1CC(C)/C(=N/NC(N)=O)C(C(O)CC2CCC(=O)NC2=O)C1` (configuration not stated), the GI50 is 3.96 µM and the TGI was 49.7 µM.

For `O=c1oc2cccnc2n1CCN1CCN(c2ccc(Oc3ccccc3)cc2)CC1`, the TGI was over 100 µM.

Consider `CCOC(=O)NC(NNc1ccc([N+](=O)[O-])cc1[N+](=O)[O-])(C(F)(F)F)C(F)(F)F`, for which the TGI was over 100 µM.

`O=C(Nc1ccccc1)Nn1c(-c2cccs2)nc2ccc(I)cc2c1=O`: the TGI amounted to 64.9 µM.

`Cc1nn(-c2ccccc2)c2c1C(c1cc3ccccc3nc1Cl)NC(=S)N2` (configuration not stated): the TGI is over 100 µM.

In turn, `CNc1cccnc1/C=N/NC(N)=S` registered a TGI of over 10 µM.

`O=C1C=CC[C@H](/C=C/C[C@@H](O)C[C@H](O)/C=C/c2ccccc2)O1` gave a TGI of 20.6 µM.

For `O=c1c2ccccc2c2c1c1c3ccccc3c(=O)c1c1c3ccccc3c(=O)c21`, the TGI was over 100 µM.

Take `O=C1/C(=C/c2ccc(Cl)cc2)CN(Cc2cn(CCNc3ccnc4cc(Cl)ccc34)nn2)C/C1=C\c1ccc(Cl)cc1`: the GI50 is 0.657 µM and the TGI came to 1.85 µM.

Molecule `CC1C2(C)OC(=N)C(C#N)(C(c3ccco3)O2)C1(C#N)C#N` (configuration not stated) returned a TGI of over 100 µM.

As to `Cc1cc(NCCCCNc2ccnc3cc(Cl)ccc23)nc(Nc2ccc(C(=O)N3CCCC3)cc2)n1`, the GI50 was 3.04 µM and the TGI turned out to be 11.8 µM.

`O=C(CC(O)c1ccncc1)c1ccccc1` (configuration not stated): the GI50 is 28.5 µM and the TGI was over 100 µM.

Turning to `Cc1ccc(NSc2ccccc2[N+](=O)[O-])cc1`, the GI50 is 1.56 µM and the TGI stood at 22.3 µM.

Take `COc1ccc2cc3[n+](cc2c1OC)CCc1cc2c(cc1-3)OCO2`: the TGI was > 100 µM and 217 µM.

In turn, `CC(=O)O[C@H]1[C@H](OC(C)=O)[C@@H](CN=[N+]=[N-])OCO[C@@H]1CN=[N+]=[N-]` displayed a TGI of over 100 µM.

Consider `O=c1[nH]ccc2nc(-c3ccc(CN4CCC(c5nc(-c6ccccn6)n[nH]5)CC4)cc3)c(-c3ccccc3)cc12`, for which the GI50 is 25.4 µM and the TGI is over 100 µM.

In turn, `COP(=O)(OC)C(O)/C=C/c1ccco1` (configuration not stated) displayed a TGI of over 100 µM.

Take `COC(=O)C1=COC2OC3/C(=C\c4ccc(O)c(OC)c4)C(=O)OC34C=CC1C24` (configuration not stated): the TGI was 34 µM.

Take `COc1ccc2c(c1)O[C@H]1c3ccc(O)cc3OC[C@@H]21`: the TGI is over 100 µM.

For the molecule `O=c1[nH]c(=O)n(C2CC(O)C(CO)O2)cc1C#Cc1cc(C(F)(F)F)cc(C(F)(F)F)c1` (configuration not stated), the TGI is over 100 µM.

For the molecule `CC(=O)O[C@H]1CC[C@H]2[C@@H]3CCC4=C(C(=O)C=CC4(C)OC(C)=O)[C@H]3CC[C@]12C` (some centres not stated), the TGI was over 100 µM.

Take `N#CCc1ccc(/C(C#N)=C2/OC(=N)C(c3ccc(CC#N)cc3)C2=O)cc1` (configuration not stated): the TGI was over 100 µM.

These data come from PubChem BioAssay (NCI).
